In article PMC11558135 one finds binding data, which are given here for two molecules.

The chains behind the UniProt entries cited, without tags or fusion partners. Where a name states a change or a piece, a line headed by the entry shows the natural chain unless it says otherwise. A line that says so, or that is headed by a name, gives the form on record, which may keep a tag or linker. Residues count along the entry.
UniProt P67809: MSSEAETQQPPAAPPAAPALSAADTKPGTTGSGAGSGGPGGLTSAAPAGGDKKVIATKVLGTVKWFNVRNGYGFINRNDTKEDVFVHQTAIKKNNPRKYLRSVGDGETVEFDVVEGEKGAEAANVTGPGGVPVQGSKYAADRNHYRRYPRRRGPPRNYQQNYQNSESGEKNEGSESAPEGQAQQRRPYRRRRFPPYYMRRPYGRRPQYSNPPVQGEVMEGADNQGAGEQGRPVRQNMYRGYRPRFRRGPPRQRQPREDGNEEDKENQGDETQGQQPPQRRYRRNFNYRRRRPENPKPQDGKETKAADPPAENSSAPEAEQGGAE
YBX1-(Δ126-324aa)-Myc: residues 1-125 of P67809
YBX1-(Δ1-60aa)-Myc: residues 61-324 of P67809
YBX1-(Δ61-125aa)-Myc (P67809, form named): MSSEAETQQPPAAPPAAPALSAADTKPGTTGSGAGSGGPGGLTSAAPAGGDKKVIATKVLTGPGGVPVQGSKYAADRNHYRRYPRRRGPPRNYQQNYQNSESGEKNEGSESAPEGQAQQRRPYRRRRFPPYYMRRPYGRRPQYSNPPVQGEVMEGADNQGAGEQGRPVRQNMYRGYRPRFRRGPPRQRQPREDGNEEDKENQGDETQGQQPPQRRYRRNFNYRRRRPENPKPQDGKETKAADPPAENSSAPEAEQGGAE
UniProt P62960: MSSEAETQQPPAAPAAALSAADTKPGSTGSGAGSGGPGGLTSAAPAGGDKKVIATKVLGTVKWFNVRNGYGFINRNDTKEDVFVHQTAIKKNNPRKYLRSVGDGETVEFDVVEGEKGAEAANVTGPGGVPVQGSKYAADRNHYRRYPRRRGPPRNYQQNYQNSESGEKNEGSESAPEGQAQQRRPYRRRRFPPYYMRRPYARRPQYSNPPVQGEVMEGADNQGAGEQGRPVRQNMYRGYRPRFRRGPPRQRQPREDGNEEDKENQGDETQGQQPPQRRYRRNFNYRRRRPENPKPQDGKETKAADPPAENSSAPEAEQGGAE

One assay deals with YBX1-(Δ126-324aa)-Myc (UniProt P67809). Briefly: co-IP; HEK293T cells co-transfected with Flag-TRIM56 and Myc-YBX1 or its truncated mutants, lysate, anti-Flag or anti-Myc antibody, magnetic beads, washed three times with 0.5% PBST.
In the next assay the target is YBX1-(Δ61-125aa)-Myc (UniProt P67809). Described as above.
For a further assay, the target named is YBX1-(Δ1-60aa)-Myc (UniProt P67809). Described as above.
In another assay the target is Myc-tagged YBX1 (UniProt P67809). Described as above.
Assay [1] has as its target Y-box-binding protein 1 (YBX1), endogenous (mouse (endogenous in mouse spinal cord tissue; the species of the primary neurons is not stated)) (UniProt P62960). Briefly: co-IP; endogenous proteins in primary neurons lysate, anti-YBX1 or anti-TRIM56 primary antibody, magnetic beads, washed three times with 0.5% PBST; neurons with or without OGD treatment.
The target is the same in assay [2]. Briefly: co-IP; endogenous proteins in spinal cord tissue lysate of mice after SCI surgery or sham surgery, magnetic beads, washed three times with 0.5% PBST.

These are yes or no findings as the source states them, for the method shown. Binding seen in cells or lysates may run through a third protein. Some entries that bind do so weakly or less than the wild type. For part of these data: Sequences can lack the tags named with a protein.

B1: Flag-tagged full-length TRIM56 (protein, UniProt Q9BRZ2 1-755)
chain: MVSHGSSPSLLEALSSDFLACKICLEQLRAPKTLPCLHTYCQDCLAQLADGGRVRCPECRETVPVPPEGVASFKTNFFVNGLLDLVKARACGDLRAGKPACALCPLVGGTSTGGPATARCLDCADDLCQACADGHRCTRQTHTHRVVDLVGYRAGWYDEEARERQAAQCPQHPGEALRFLCQPCSQLLCRECRLDPHLDHPCLPLAEAVRARRPGLEGLLAGVDNNLVELEAARRVEKEALARLREQAARVGTQVEEAAEGVLRALLAQKQEVLGQLRAHVEAAEEAARERLAELEGREQVARAAAAFARRVLSLGREAEILSLEGAIAQRLRQLQGCPWAPGPAPCLLPQLELHPGLLDKNCHLLRLSFEEQQPQKDGGKDGAGTQGGEESQSRREDEPKTERQGGVQPQAGDGAQTPKEEKAQTTREEGAQTLEEDRAQTPHEDGGPQPHRGGRPNKKKKFKGRLKSISREPSPALGPNLDGSGLLPRPIFYCSFPTRMPGDKRSPRITGLCPFGPREILVADEQNRALKRFSLNGDYKGTVPVPEGCSPCSVAALQSAVAFSASARLYLINPNGEVQWRRALSLSQASHAVAALPSGDRVAVSVAGHVEVYNMEGSLATRFIPGGKASRGLRALVFLTTSPQGHFVGSDWQQNSVVICDGLGQVVGEYKGPGLHGCQPGSVSVDKKGYIFLTLREVNKVVILDPKGSLLGDFLTAYHGLEKPRVTTMVDGRYLVVSLSNGTIHIFRVRSPDS
Consider B1, for which the binding entry with YBX1-(Δ126-324aa)-Myc is recorded as “binds”; with YBX1-(Δ61-125aa)-Myc, “no binding”; in the assay with YBX1-(Δ1-60aa)-Myc, “no binding”; with Myc-tagged YBX1, “binds”.

B2: E3 ubiquitin ligase TRIM56, endogenous (protein, UniProt Q80VI1 1-734)
chain: MNSKVSSPTLLEALSSDFLACKICLEQLHTPKTLPCLHTYCQDCLAQLDIGGQVRCPECREIVPVPAEGVAAFKTNFFVNGLLDLVKARAPGDVHSGKPTCALCPLVGGKSSGGPATARCLDCADDLCQACADGHRCSRQTHKHRVVDLVGYRAGWYDEEARERQASQCPQHPGEALCFLCQPCSQLLCKDCRLGPHIDHPCLPLAEAVRSRKPGLEELLAGVDSNLVELEATRVAEKEALALLREQAASVGTQVEEAAERILKSLLAQKQEVLGQLRALVEAAEEATRERLTKIERQEQVAKAAAAFARRVLSLGLEAEILSLEGAITQRLRQLQDAPWTSGPTRCVLPQLELHPGLEDKNCHLLRLIFEEPKQSPKDSGKGGAGTQGGDEAQGQGDDRTKIGKQGGAQPLTPKEGKDQNPQEDDGVFIERGNRPNKKKKCKGRGKSVSREPSPILRPNLEGSGLLPRPVFSWSFPTRMPGDKRSPRITGLCPYGPQEILVADEQNRVLKRFSLNGDYKGTVQVPEGCSPCSVAALQNAVAFSANAKLYLVSPDGEIQWRRSLSLTQSSHAVAAMPCGDRVAVSVAGHVEVYKKDGSLATRFIPGGKASRGQRALVFLTTSPQGNFVGSDWQQNSVVFCDGLGQVIWEYKGPGLHGCQPGSVSVDKKGYIFLTLREVNKVVILDPKGSLLGDFLTAYHGLEKPRVTTMVDGKYLVVSLSNGTIHVFRVRFPDS
As to B2, the binding result in assay [1] and in assay [2] was “binds” each time.
